Results reported in the RNAGym collection of RNA variant scans (doi:10.7554/elife.90254).
Read counts are not given, so values of variants with three or more changes are uncertain.

B1: LINE1-mini (parent)
chain: GGCAGAGCUCAACACAGCGUGGCAAAGUGGCUGUGGCUAGACUGCC

Variants of: B1
Experiment: self-cleavage, relative activity (ratio to wild type); higher = more cleavage; in vitro, sequencing; the parent is a self-cleaving ribozyme

| Variant | self-cleavage |
| --- | --- |
| G5C G17A U32G G36U A41G | 0.01 |
| A6C G7U C18G | 0.1 |
| A4U G36U G40U | 0.11 |
| A11U G17C G19C C45G | 0.01 |
| A4G G7A G27U C31G | 0.07 |
| G19A G29A C46U | 2.43 |
| G19C G27A G30C | 0.12 |
| G5C C13A G17C G19U C31U G36C A39C | 0.03 |
| C10U A12G C13U C18U | 0 |
| G1C U32G A39U | 0 |
| G7C G33A G40C C45U | 0 |
| C3U A25U G27C G35U | 0.07 |
| C8A A16G U20C U43A | 0.11 |
| G5C A6C C8G | 0.06 |
| C8A C10A C37A | 0.05 |
| U9A C13A C18U G27A G30C U32C | 0.03 |
| A16U A24G G29U | 0.04 |
| G1U G5A C37U | 0.22 |
| U9G C18A A26G C37U C42U C45A | 0.06 |
| G21U U28C U34G | 0.16 |
| A6G U9G G36U A39G C45G | 0.14 |
| G1U G2C G27C C42G | 0 |
| G17U G21A C45A | 0.14 |
| C23A C42U C46G | 0.24 |

| Variant | self-cleavage |
| --- | --- |
| G17C G30U A41G | 0.01 |
| C15U G33U C46A | 0.04 |
| A6G A26G G36U A39C | 0.02 |
| G2C C3A G29A U34G | 0.06 |
| U9A U34A C37G | 0 |
| A11U A12U C18U G22A C23G A24C | 0.02 |
| C15U G36U G44U | 0.03 |
| C8G C18A A26C G36U A41U C42G | 0.04 |
| A12G G17U G21A C46U | 0.12 |
| G1A A16C C31A G35A G44A | 0.02 |
| G5A C10G A25C U32C | 0.04 |
| G5A G29U C37U U43G | 0 |
| C3U G19C C23A G44C | 0.24 |
| G5A G17C G44U | 0 |
| G1A G33U G40U | 0.03 |
| U20G G33U U34A | 0.08 |
| C13U G17A C46U | 0.06 |
| C8U G21C G22A C31U | 0.23 |
| U9C G36C C37A C46G | 0.02 |
| G19U A24C G29U G40C | 0.08 |
| G5U C8U G22U G36U | 0.54 |
| C10A A12G G22U G27A U28G C37U | 0.01 |
| C8A A16C U32A U38C C42A | 0.01 |
| C8A U28A G33U | 0.1 |

| Variant | self-cleavage |
| --- | --- |
| C15U C18U C46U | 0.13 |
| C10A U28G A39G G40A | 0.02 |
| C8G U43A C45G | 0.07 |
| A25C G27A G40U U43G | 0.01 |
| A16G A25U U28A U43A | 0.02 |
| C8U C31A C37A A41G | 0.02 |
| G1U C18A G21A | 0.27 |
| C15G U20C G22U | 0.09 |
| G2C C13U G17C A39C | 0.13 |
| G1A A12U G17C C46G | 0.6 |
| G1A G27C U32C | 0.07 |
| G2U U28A G30A | 0.33 |
| A11G A26U G40U | 0.01 |
| C8A C13A G29U U43A | 0.18 |
| C3A C8U A14C G21A A25C U32A C37G | 0.04 |
| G1A A6U A11G C37G C42U | 0 |
| C42G U43G C45U | 0.01 |
| G7U U9G G21A U28A | 0.01 |
| A4C C10U C23U A24U G33U | 0.02 |
| A4C C31G G44A | 0.01 |
| A4G C37U G44U | 0.03 |
| A12U C13A A14U G22U G30U U43C | 0.04 |
| C10U A12C U20A C37A | 0 |
| G7U A11C G17C U28A G30A | 0.01 |

| Variant | self-cleavage |
| --- | --- |
| C15U C18U U32C G35C G44A | 0.06 |
| C18G G21A G30U | 0.68 |
| A6U C23A G40U | 0.36 |
| G2C C31G G35U | 0.02 |
| G27A G29U U34G | 0.16 |
| C3A A12U G17A A41C C45G | 0.12 |
| C10G U32C C37A | 0.02 |
| C23A G27U U28G | 0.13 |
| G21U G30U C45U | 0.88 |
| A6U C8U U34G | 0.58 |
| C3G A6G A12G | 0.01 |
| A4U G19C G27U | 0.02 |
| G27C U28A U34G | 0.19 |
| U9A G21A U28A U32C | 0.08 |
| G7A C13U A25G G33U G35U | 0.03 |
| G7U C15A G21U G35U C37A | 0.02 |
| G5A C13G G36C | 0 |
| C13A C15G C18G G27A U28C G30A G33U G35A | 0.04 |
| G7A C10A G30U A39U | 0.06 |
| G17C G33U U34G G40A C45A | 0 |
| G1U A12U G35C U43C G44A | 0.01 |
| G5A U20C U38C | 0.01 |
| A4C G7U G36U C37A | 0.18 |
| C10A A11C C37A A39U | 0 |

| Variant | self-cleavage |
| --- | --- |
| C3U A6G G21A G33U | 0.05 |
| G2U A14U C37A | 0.03 |
| G1A A26G U32C G33U | 0.02 |
| G2A C13A A25U U28G | 0.14 |
| A12G A14G G19A | 0.01 |
| C10A C15A G21C G40U C46A | 0.02 |
| U20G A26G G44A | 0.04 |
| G22C A26C C42U | 0.25 |
| G2A G30U U38C | 0.15 |
| A12U U34C C46A | 0.02 |
| U9G C15U G17U G19C G40C | 0.06 |
| G33U G36C U38A C46U | 0.09 |
| G7C C37U A39G C46U | 0.01 |
| A6G C8U A26U U34A C37A | 0.21 |
| C15A G17C C23U | 0.13 |
| C3G C8A A12U | 0.18 |
| G1U C8A G35U C42A | 0.07 |
| C8A U9C A12G G36U | 0.03 |
| A26G G30U C31A | 0.28 |
| G1U G5U A6U G44U | 0.02 |
| G2C G17U A26U U28G G40U | 0.22 |
| C15U G22A C46U | 0.75 |
| C3U G17A U28G C31A A39C | 0.01 |
| C10A A12U G35A | 0.03 |

| Variant | self-cleavage |
| --- | --- |
| U9G U28A G29U | 0.04 |
| A6U A16C U28A G33A | 0.07 |
| C3A C10A C42G C46G | 0.01 |
| A6U C15A U34G | 0.08 |
| G2C G44U C45U | 0.47 |
| G19C A25C G44U | 0.25 |
| G2A G22U C23A A24U A39C | 0.16 |
| A4G C18G U28C U34C | 0.16 |
| G2A C10A A16C C23U | 0.08 |
| G5A G29C C42G | 0.04 |
| C15G C18A G19U C23U | 0.04 |
| A11C G22A A41U | 0.03 |
| A4G A11G G44U | 0.02 |
| C8U C10A C18U U20A C31U A39U C46U | 0.04 |
| C8G U32G G44U | 0.07 |
| C23A G27U G29U G36U | 0.05 |
| G2A A4U U34C C42U | 0.32 |
| A14U C23A G27C G33U U34C A39G U43A C46A | 0.06 |
| G27C C31A U38A A39U A41G C46U | 0.17 |
| A11G C13U C15G | 0.01 |
| U9G C10U G33C U38A | 0.01 |
| G17A G22A G29A | 1.35 |
| C10G G19U A41C | 0.03 |
| A6U G7A G19C G30U C37U | 0.01 |

| Variant | self-cleavage |
| --- | --- |
| U28C G44U C45A | 0.01 |
| G27C U28A U34C | 0.13 |
| C8G C15A G27C G33A | 0.02 |
| A25G G33C C42A | 0.03 |
| G21C G22U U38A | 0.01 |
| C3A G29A G36U C37U | 0.18 |
| A12G A24G C37A G44U | 0.01 |
| A11U A12U C15A C31U C45U | 0.01 |
| G2U C10G A11G G35A | 0.03 |
| A6C C18A G35U | 0.03 |
| G2C G40C A41C | 0.09 |
| A6U C13U G27U C46U | 0.09 |
| G7A C8U A12G G21A U43A | 0.24 |
| A6G U28A C31U | 0.02 |
| G7A A16U G30C | 0.13 |
| G5U C18A G22U G27U U32A | 0.03 |
| G7A C13G G17A G29C G44C | 0.05 |
| A4C A16C G22U A24U A25U | 0.07 |
| U9C G19U C42A | 0.03 |
| A6G U20G G30A U34C G36A G44U | 0.01 |
| A24G G27A U43G | 0.02 |
| G17A U28C A41G | 0.01 |
| C18A G22U G29U | 1.1 |
